Measured values published in a collection of fitness landscapes (doi:10.1016/j.celrep.2020.107928).
Over roughly 81,000 sequences, “one-hybrid fitness for binding NBS DNA” has its median near -0.1; the highest 2% begin near 0.36. Some of the results follow.

B1: Caulobacter ParB omega fusion; a variant is named by its letters at X, in order, B8GW30 (parent)
chain: MESVVVGEPGMSEGRRGLGRGLSALLGEVDAAPAQAPGEQLGGSREAPIEILQRNPDQPRRTFREEDLEDLSNSIREKGVLQPILVRPSPDTAGEYQIVAGERAWRAAQRAGLKTVPIMVRELDDLAVLEIGIIENVQRADLNVLEEALSYKVLMEKFERTQENIAQTIGKSXSHVANXMRLLXLPDEVQSYLVSGELTAXHARAIAAAADPVALAKQIIEGGLSVRETEALARKAPNLSAGKSKGGRPPRVKDTDTQALESDLSSVLGLDVSIDHRGSTGTLTITYATLEQLDDLCNRLTRGI

Variants of: B1
Experiment: one-hybrid fitness for binding NBS DNA (the Noc-binding site; scaled: cognate 1, non-cognate 0); higher = stronger binding
Conditions: with NBS DNA site
Summary of the method: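 In E. coli USO, a HIS3 reporter with its site placed 19 bp from the promoter was used to select Caulobacter ParB variants randomised at four specificity codons. Growth lasted 48 hours at 37°C on histidine-free M9 containing 0.1 mM IPTG and 5 mM 3-AT. Fitness was taken as the log change in variant-to-wild-type read ratio from Illumina sequencing of pre- and post-selection plasmids, rescaled between the non-cognate and cognate sites.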

Variant	one-hybrid fitness for binding NBS DNA
DKRS	≤ 0.2
LMGY	≤ 0.2
RFVV	≤ 0.2
KSNW	≤ 0.2
CMIR	≤ 0.2
YYWF	≤ 0.2
DAWY	≤ 0.2
CIPS	≤ 0.2
QAQH	0.205
DTTK	≤ 0.2
VAYL	≤ 0.2
KGFW	≤ 0.2
PHIT	≤ 0.2
AKKW	≤ 0.2
TAVL	≤ 0.2
RVKK	≤ 0.2
QHTI	≤ 0.2
CLCW	≤ 0.2
GHRY	≤ 0.2
RYYR	0.404
CEKV	≤ 0.2
HTYD	≤ 0.2
VRVS	≤ 0.2
HLYT	≤ 0.2
VRNT	0.374

Variant	one-hybrid fitness for binding NBS DNA
MASD	≤ 0.2
NYCV	≤ 0.2
SPLG	≤ 0.2
QYGW	≤ 0.2
NCNI	≤ 0.2
LTPC	≤ 0.2
GTST	≤ 0.2
SSCT	≤ 0.2
GWNV	≤ 0.2
AAMP	≤ 0.2
KTVC	≤ 0.2
EEGG	≤ 0.2
CDLE	≤ 0.2
GIQG	≤ 0.2
IVKT	≤ 0.2
MSMV	≤ 0.2
QMTW	≤ 0.2
RLHA	≤ 0.2
PCHR	≤ 0.2
TRKI	≤ 0.2
TEPM	≤ 0.2
THRY	≤ 0.2
DPYC	≤ 0.2
TEDF	≤ 0.2
CPDH	≤ 0.2

Variant	one-hybrid fitness for binding NBS DNA
VILL	≤ 0.2
QRRG	0.483
LKRY	≤ 0.2
ARQK	≤ 0.2
RCSI	≤ 0.2
VNDG	≤ 0.2
RVWK	≤ 0.2
PRFF	≤ 0.2
NTIG	≤ 0.2
RTPC	≤ 0.2
WKRF	≤ 0.2
VFDR	≤ 0.2
EMRI	≤ 0.2
QIPP	≤ 0.2
NDMA	≤ 0.2
QMPP	≤ 0.2
YKYL	≤ 0.2
SSYC	≤ 0.2
NIKR	≤ 0.2
AEDG	≤ 0.2
WSNE	≤ 0.2
WMLT	≤ 0.2
CAVR	≤ 0.2
PPMI	≤ 0.2
LFDR	≤ 0.2

Variant	one-hybrid fitness for binding NBS DNA
LGGF	≤ 0.2
HNHT	≤ 0.2
SINY	≤ 0.2
YHQS	≤ 0.2
QCSV	≤ 0.2
IRNQ	≤ 0.2
IVES	≤ 0.2
EQPV	≤ 0.2
KKNC	≤ 0.2
RNRG	≤ 0.2
QCFS	0.397
MNLN	0.306
VNCV	≤ 0.2
GYWS	≤ 0.2
PHTT	≤ 0.2
QYVR	0.381
RGLH	≤ 0.2
WTTV	≤ 0.2
RFQP	≤ 0.2
VENT	≤ 0.2
AFNV	≤ 0.2
CGQS	≤ 0.2
LITV	≤ 0.2
SVVS	≤ 0.2
SGYI	≤ 0.2

Variant	one-hybrid fitness for binding NBS DNA
HFVL	≤ 0.2
YLWS	≤ 0.2
RGGN	≤ 0.2
CRHL	≤ 0.2
PKYC	≤ 0.2
KATC	≤ 0.2
AEKN	≤ 0.2
QCVA	0.298
GFCR	≤ 0.2
RECT	≤ 0.2
QLLR	0.415
HINQ	≤ 0.2
EMGT	≤ 0.2
QTPP	≤ 0.2
YGIS	≤ 0.2
DVAE	≤ 0.2
ATMV	≤ 0.2
RHKD	≤ 0.2
VRVH	≤ 0.2
ETQC	≤ 0.2
IGSA	≤ 0.2
TRQH	≤ 0.2
LSFE	≤ 0.2
SRDY	≤ 0.2
YVWS	≤ 0.2

Variant	one-hybrid fitness for binding NBS DNA
YAHY	≤ 0.2
PKHV	≤ 0.2
KPSV	≤ 0.2
QCCM	≤ 0.2
QMHA	0.305
WIPG	≤ 0.2
TRVN	≤ 0.2
GDGS	≤ 0.2
DTNC	≤ 0.2
RIAY	≤ 0.2
TDHT	≤ 0.2
CPMN	≤ 0.2
YINH	≤ 0.2
KWPI	≤ 0.2
SPEL	≤ 0.2
VVMC	≤ 0.2
EDNS	≤ 0.2
IVLT	≤ 0.2
YVHA	≤ 0.2
SPRM	≤ 0.2
VRTR	0.279
GSVS	≤ 0.2
THWR	≤ 0.2
GKAK	≤ 0.2
PHVK	≤ 0.2

Variant	one-hybrid fitness for binding NBS DNA
AYLE	≤ 0.2
HQCR	≤ 0.2
ILPP	≤ 0.2
HYLC	≤ 0.2
QPAP	≤ 0.2
ASID	≤ 0.2
MPLR	≤ 0.2
VFSL	≤ 0.2
KMWR	≤ 0.2
HEIV	≤ 0.2
QNVM	≤ 0.2
KPHG	≤ 0.2
HTYV	≤ 0.2
YAPL	≤ 0.2
GWDR	≤ 0.2
QLHS	0.373
RVGA	≤ 0.2
ELIS	≤ 0.2
RYRN	≤ 0.2
YDKN	≤ 0.2
TVRC	≤ 0.2
GHRK	≤ 0.2
PQFG	≤ 0.2
VALF	≤ 0.2
SRPC	≤ 0.2

Variant	one-hybrid fitness for binding NBS DNA
KMFS	≤ 0.2
LCFS	≤ 0.2
TFLR	≤ 0.2
NHNY	≤ 0.2
NLDT	≤ 0.2
RIHW	≤ 0.2
RFRF	≤ 0.2
WYPQ	≤ 0.2
CWKT	≤ 0.2
IPER	≤ 0.2
IMRT	≤ 0.2
TAPL	≤ 0.2
YMSF	≤ 0.2
QCVM	≤ 0.2
MTYR	≤ 0.2
GQCR	≤ 0.2
SEHS	≤ 0.2
YYNN	≤ 0.2
ILVG	≤ 0.2
QVVT	0.248
